Data set [1] is described as follows: Toxicity in brine shrimp after 48 hrs. The data set is classed as ADME, organism-based. The settings on record: artemia salina, in vivo.
The subject of the next data set is Tetranychus urticae. Nature of the data set: Acaricidal activity against Tetranychus urticae infected on kidney bean leaves assessed as prevention of infection at 10 ppm after 14 days by green house pot test relative to control. Format: functional.
In a further data set the test system is L1210. Nature of the data set: Cytotoxicity against mouse L1210 cells assessed as growth inhibition after 48 hrs by coulter counter analysis. The data set is classed as functional, cell-based. The settings on record: L1210, 48 h.
Data set [2] can be described thus: Cytotoxicity against mouse invasive mammary carcinoma cells assessed as growth inhibition after 48 hrs by coulter counter analysis. The data set is classed as functional, cell-based.
Data set [3] in a line: Acute toxicity in iv dose mouse. The data set is classed as organism-based. The settings on record: in vivo.
The next data set concerns Streptococcus pyogenes. Nature of the data set: Antibacterial activity against Streptococcus pyogenes. Format: functional.
Data set [4] in a line: Antibacterial activity against Xanthomonas citri. The data set is classed as functional.

Broadly, the LC50 is the concentration that kills 50% of the test population. Low readings indicate greater toxicity, high ones lower toxicity. As a reminder, the IC50 is the concentration that gives 50% inhibition. Broadly, the LD50 is the dose at which mortality reaches 50%. High values mean a less toxic substance, low ones a more toxic substance. Broadly, the MIC is the lowest concentration found to suppress growth. The low end stands for greater potency, the high end for weaker potency.

In brackets after ≈: the same amount, converted by molar mass.

Turning to `CN1C=C(C(N)=O)[C@@H]2C[C@H](O)[C@@](NC(=O)CS(N)(=O)=O)(C(=O)O)[C@@H]2C1`, in data set [1], the 50% lethal concentration (LC50) at 48 h was 3 µg/mL (≈ 7.97 µM). The Activity with Tetranychus urticae came to 50%. In addition, the IC50 (in the data set with L1210; in data set [2]) was 2120 nM in each case. In data set [3], this compound had an LD50 of 0.3 mg/kg.

The compound `Nc1nc(Br)nc2c1ncn2[C@@H]1O[C@H](COS(N)(=O)=O)[C@@H](O)[C@H]1O` gave an MIC with Streptococcus pyogenes of 0.2 µg/mL (≈ 0.47 µM).

For `C[C@H](N)C(=O)NS(=O)(=O)OC[C@H]1O[C@@H](n2cnc3c(N)nc(Cl)nc32)[C@H](O)[C@@H]1O`, the MIC in data set [4] is 0.4 µg/mL (≈ 0.885 µM).

Source of the values: ChEMBL document CHEMBL3585320, “Natural Product Primary Sulfonamides and Primary Sulfamates” (J Nat Prod, 2015).
